Test results as given in PubChem BioAssay (NCATS).
Values joined by “and” are separate entries in the source; they are usually repeats but may differ in a detail not shown here. Identical values can stand only once. Inconclusive means that the source gave no clear call. Such entries were picked first, then a sample of the others. Potencies of inconclusive entries are doubtful fits and often do not repeat. Active and inactive are the calls of the source. Calls follow the shape of the dose curve; as a rule, active = well fitted curve in the direction sought with a large enough effect; inconclusive = small, poorly fitted or top-dose-only effect, or another doubt; inactive = no such curve, though single readings can be large; an effect the other way counts as inactive or inconclusive.

Key:
[1] = qHTS of pediatric cancer cell lines to identify multiple opportunities for drug repurposing: Primary screen for NB-EBc1 cells (AID 1347095)
Summary of the method: (§1)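 Phenotypic viability qHTS, 48 h compound exposure, CellTiter-Glo luminescence read-out; multi-concentration dosing so that potency and efficacy derive directly from the primary screen's curves.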

[2] = qHTS of pediatric cancer cell lines to identify multiple opportunities for drug repurposing: Primary screen for U-2 OS cells (AID 1347096); also: nearly all actives have a fitted effect of over 50% in size;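 as to activity change, negative = cytotoxic: plate controls were DMSO wells for no effect and bortezomib positive control wells for full effect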
Summary of the method: (§2)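 Cells (500-1,000/well) rested 5 h, then received compounds for 48 h; metabolically active cells were measured by CellTiter-Glo luminescence. Final concentrations spanned up to 46 µM (MIPE, 11-point) or 0.59 nM-46 µM (NPC, 8-point) in primary screens, 11-point in follow-ups.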

[3] = qHTS of pediatric cancer cell lines to identify multiple opportunities for drug repurposing: Primary screen for Saos-2 cells (AID 1347097); settings: Saos-2 viability, CellTiter-Glo ATP luminescence, 48 h; activity change, negative = cytotoxic: at 46 µM (top of the series); also: nearly all actives have a fitted effect of over 40% in size
Summary of the method: as §1

[4] = qHTS of pediatric cancer cell lines to identify multiple opportunities for drug repurposing: Primary screen for NB1643 cells (AID 1347099); also: nearly all actives have a fitted effect of over 50% in size
Summary of the method: as §1

[5] = qHTS of pediatric cancer cell lines to identify multiple opportunities for drug repurposing: Primary screen for LAN-5 cells (AID 1347100); settings: LAN-5 neuroblastoma viability, CellTiter-Glo luminescence, 48 h; activity change, negative = cytotoxic: at 46 µM (top of the series);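 as to activity change, negative = cytotoxic: plate controls were DMSO neutral control for no effect and bortezomib positive control for full effect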
Summary of the method: as §2

[6] = qHTS of pediatric cancer cell lines to identify multiple opportunities for drug repurposing: Primary screen for BT-12 cells (AID 1347101); also: nearly all actives have a fitted effect of over 25% in size;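 as to activity change, negative = cytotoxic: plate controls were DMSO for no effect and bortezomib positive control for full effect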
Summary of the method: as §2

[7] = qHTS of pediatric cancer cell lines to identify multiple opportunities for drug repurposing: Primary screen for OHS-50 cells (AID 1347103); also: nearly all actives have a fitted effect of over 40% in size;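 as to activity change, negative = cytotoxic: plate controls were DMSO neutral control for no effect and bortezomib positive control for full effect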
Summary of the method: as §2

[8] = qHTS of pediatric cancer cell lines to identify multiple opportunities for drug repurposing: Primary screen for RD cells (AID 1347104); also: nearly all actives have a fitted effect of over 55% in size
Summary of the method: as §1

[9] = qHTS of pediatric cancer cell lines to identify multiple opportunities for drug repurposing: Primary screen for SK-N-SH cells (AID 1347098); settings: SK-N-SH viability, CellTiter-Glo luminescence, 48 h; activity change, negative = cytotoxic: at 57 µM (top of the series); also: nearly all actives have a fitted effect of over 65% in size;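 as to activity change, negative = cytotoxic: DMSO served as neutral control and bortezomib at 2.3 µM as positive control; % is scaled to controls: 0 for no effect and ±100 for the full control effect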
Summary of the method: as §2

[10] = qHTS of pediatric cancer cell lines to identify multiple opportunities for drug repurposing: Primary screen for Rh18 cells (AID 1347102); also: nearly all actives have a fitted effect of over 65% in size
Summary of the method: as §2
Potency is read from the fitted curve at half-maximal effect; tags tell the direction and shape of the fitted curve.

SMILES	Potency [1]	Potency [2]	Potency [3]	Potency [4]	Potency [5]	Potency [6]	Potency [7]	Potency [8]	activity change, negative = cytotoxic [9]	Potency [10]	Potency [9]
CC(C)n1c(C=C[C@H](O)C[C@H](O)CC(=O)O)c(-c2ccc(F)cc2)c2ccccc21	inconclusive: 18.7 µM [cytotoxic, partial curve]	active: 14.8 µM	active: 1.87 µM	inconclusive: 11.8 µM [cytotoxic, partial curve]	inactive	inconclusive: 0.611 µM [cytotoxic, full curve]	active: 4.32 µM	inconclusive: 18.7 µM [cytotoxic, partial curve]	–	–	–
Clc1ccc(C(Cn2ccnc2)OCc2ccsc2Cl)c(Cl)c1 (configuration not stated)	inconclusive: 29.9 µM [cytotoxic, single point] and inconclusive: 33.2 µM [cytotoxic, single point]	inconclusive: 33.5 µM [cytotoxic, partial curve, poor fit]	inconclusive: 29.9 µM [cytotoxic, partial curve, poor fit] and inconclusive: 26.4 µM [cytotoxic, single point]	inconclusive: 29.6 µM [cytotoxic, single point]	inconclusive: 26.6 µM [cytotoxic, single point] and inconclusive: 37.2 µM [cytotoxic, single point]	inconclusive: 1 nM [cytotoxic, full curve, poor fit] and inconclusive: 34.3 µM [cytotoxic, single point]	inconclusive: 27.6 µM [cytotoxic, single point] and active: 24.3 µM	–	inconclusive: -38.2% [cytotoxic]	–	–
CC=C(C)C(=O)O[C@H]1C(C)=C[C@]23C(=O)[C@@H](C=C(CO)[C@@H](O)[C@]12O)[C@H]1[C@@H](C[C@H]3C)C1(C)C	active: 14.8 µM	inconclusive: 18.7 µM [cytotoxic, partial curve]	active: 0.296 µM	inconclusive: 23.5 µM [cytotoxic, single point]	inconclusive: 26.4 µM [cytotoxic, single point]	inconclusive: 21.7 µM [cytotoxic, partial curve]	–	inconclusive: 33.2 µM [cytotoxic, single point]	–	inconclusive: 26.4 µM [cytotoxic, single point]	–
Cn1cnc2c(F)c(Nc3ccc(Br)cc3Cl)c(C(=O)NOCCO)cc21	inconclusive: 0.15 µM [cytotoxic, full curve]	inconclusive: 21.1 µM [cytotoxic, partial curve]	inconclusive: 15 µM [cytotoxic, partial curve]	–	inconclusive: 7.43 µM [cytotoxic, full curve, poor fit]	inconclusive: 12.3 µM [cytotoxic, partial curve]	inactive	inconclusive: 0.0944 µM [cytotoxic, full curve]	–	inconclusive: 8.33 µM [cytotoxic, partial curve]	inconclusive: 24.1 µM [cytotoxic, partial curve]
CC(C)[C@H](N)C(=O)OCCOCn1cnc2c(=O)[nH]c(N)nc21	inconclusive: 29.6 µM [cytotoxic, single point]	inactive	inconclusive: 41.8 µM [cytotoxic, single point]	–	–	inactive	inactive	–	–	–	–
S=c1nc[nH]c2nc[nH]c12	active: 531 nM and active: 1.66 µM	inconclusive: 8.41 µM [cytotoxic, partial curve] and inconclusive: 14.8 µM [cytotoxic, partial curve]	inconclusive: 15 µM [cytotoxic, partial curve]	inconclusive: 7.5 µM [cytotoxic, partial curve] and inconclusive: 14.8 µM [cytotoxic, partial curve]	active: 1.5 µM and active: 2.96 µM	–	active: 2.19 µM and active: 3.06 µM	–	–	–	inconclusive: 13.6 µM [cytotoxic, partial curve]
Cc1ccc(C(=O)c2cc(O)c(O)c([N+](=O)[O-])c2)cc1	inconclusive: 21.1 µM [cytotoxic, single point] and inconclusive: 23.5 µM [cytotoxic, single point]	inconclusive: 16.8 µM [cytotoxic, partial curve, poor fit]	inconclusive: 26.6 µM [cytotoxic, single point] and inconclusive: 18.7 µM [cytotoxic, single point]	–	inconclusive: 33.5 µM [cytotoxic, single point] and inconclusive: 37.2 µM [cytotoxic, single point]	inconclusive: 21.9 µM [cytotoxic, single point]	inconclusive: 24.6 µM [cytotoxic, single point] and inconclusive: 27.3 µM [cytotoxic, single point]	inconclusive: 18.7 µM [cytotoxic, partial curve, poor fit]	–	–	–
